Experimental data: patent US20080241161A1, “REMEDY FOR MAMMARY CANCER” (Mitsubishi Pharma Co., priority 2001, published 2008)

Columns and labels:
[1] = system: human mammary cancer tissue; test: Reactivity of GAH antibody with human mammary cancer tissue sections (biotinylated antibody, PerCP-streptavidin fluorescence microscopy); format: binding; settings: of 11 cases of mammary cancer tissue; 100 μg/ml biotinylated GAH antibody, 37° C., 2 hours; judged from intensity and distribution of red fluorescence
Protocol: (§1) A GAH antibody as described in Japanese Patent Application Laid-Open No. Hei 5-304987 (Examples 1, 2 and 3) was labeled with a biotinylating reagent (product of Amersham Bioscience). After a paraffin section of human mammary cancer tissue was de-paraffinized and then blocked by dipping it in a 5%-BSA/PBS solution at room temperature for 1 hour, the resulting section was caused to react with 100 μg/ml of a biotinylated GAH antibody solution at 37° C. for 2 hours. The section was washed with PBS and caused to react with 4 μg/ml of a PerCP (peridinin chlorophyll protein) labeled streptavidin solution (product of Becton/Dickinson) for 30 minutes under ice cooling while blocking light. The reactivity of the GAH antibody with the mammary cancer tissue section was detected as red fluorescence of PerCP having an emission wavelength of 680 nm at an excitation wavelength of 490 nm by using a fluorescence microscope.

MDA-MB231 = test: Reactivity of GAH antibody with tissue sections of mammary cancer cell line tumors grown subcutaneously in nude mice; format: binding; settings: MDA-MB231 tumor from nude mouse; three lines tested (MDA-MB231, MDA-435, MDA-MB468), positive reaction recognized only from MDA-MB231
Protocol: as §1
The mammary cancer cell lines MDA-MB231, MDA-435 and MDA-MB468 (each, product of Dainippon Pharmaceutical) were cultured and each cell was implanted subcutaneously to a nude mouse (5 week old, male, purchased from Nippon CLEA). […] The reactivity of the GAH antibody with each of these mammary cancer tissue sections was analyzed in a similar manner to that employed for the analysis of the reactivity with the human mammary cancer tissue section.

B1: GAH antibody: human monoclonal antibody screened for reactivity with gastric and colorectal cancer; heavy and light chain variable regions SEQ. ID NOS. 7 and 8 (antibody, listed as Homo sapiens, V domains shown)
VH: QVQLQESGPGLVKPSQTLSLTCTVSGGSISSCGFYWNWIRQHPGKGLEWIGYIYYSGSTYYNPSLKSRVTISLDTSKSQFSLKLSSLTAADTAVYYCARSTRLRGADYWGQGTMVTVSS
VL: DIVMTQSPDSLAVSLGERATINCKSSQSVLYNSNNKKYLAWYQQKPGQPPKLLIYWASTRESGVPDRFSGSGSGTDFTLTISSLQAEDVAVYYCQQYYSTPWTFGQGTKVEIKR
- cases of mammary cancer tissue in which positive reaction occurred [1]: 5 cases
- reactivity of the GAH antibody with mammary cancer tissue section (MDA-MB231): positive reaction
